Assay results reported in the supplement of paper PMC4604168 (melanoma cell lines).
The other results are listed elsewhere or left out. Repeats are few or missing, and single values can be far off.

Columns and labels:
Assay in all cases: cell count relative to DMSO control; melanoma cells; higher = more viable cells
Conditions in all cases: library dose: low library concentration; 72 h; first compound 0.4 µM
WM115 = system: WM115
WM1716 = system: WM1716
WM1745 = system: WM1745
WM3526 = system: WM3526
WM3619 = system: WM3619
WM451Lu = system: WM451Lu
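Also: cell number obtained by counting DAPI-stained nuclei in high-throughput microscope images with image analysis software, screen run in 1,536-well plates.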

Row | Compound | cell count (WM115) | cell count (WM1716) | cell count (WM1745) | cell count (WM3526) | cell count (WM3619) | cell count (WM451Lu)
1 | Cn1sc(=O)n(Cc2ccccc2)c1=O + Nc1ccn([C@@H]2O[C@H](CO)[C@@H](O)C2(F)F)c(=O)n1 [gemcitabine] (partner dose 0.0004 µM) | 97.4% | 101% | 77.2% | 128% | 73.5% | 91.6%
2 | CCCCCCCCCCCCCCCCCCOP(=O)([O-])OC1CC[N+](C)(C)CC1 [Perifosine] + OCCn1cc(-c2cnc3nnn(Cc4ccc5ncccc5c4)c3n2)cn1 [PF04217903] (partner dose 1 µM) | 86.1% | 76.6% | 68.3% | 70.3% | 80.1% | 69.5%
3 | C[C@@H](N)c1ccc(C(=O)Nc2ccnc3[nH]ccc23)cc1 + C#Cc1cccc(Nc2ncnc3cc(OCCOC)c(OCCOC)cc23)c1 [erlotinib] (partner dose 0.8 µM) | 101% | 71.8% | 80.1% | 99.4% | 106% | 86.7%
4 | C[C@@H](N)c1ccc(C(=O)Nc2ccnc3[nH]ccc23)cc1 + OCc1c[nH]c2ccccc12 [Indole-3-carbinol] (partner dose 0.8 µM) | 92.6% | 61.5% | 66.2% | 93.8% | 90.3% | 79.2%
5 | Cn1sc(=O)n(Cc2ccccc2)c1=O + CCN(CC)CCCCNc1ncc2cc(-c3cc(OC)cc(OC)c3)c(NC(=O)NC(C)(C)C)nc2n1 [PD173074] (partner dose 0.1 µM) | 95.4% | 98.9% | 104% | 88.6% | 89.7% | 96.3%
6 | CCCCCCCCCCCCCCCCCCOP(=O)([O-])OC1CC[N+](C)(C)CC1 [Perifosine] + O=C(O)C(=O)Nc1sc2c(c1C(=O)O)CCNC2 [TCS401] (partner dose 1.66667 µM) | 98.3% | 92.7% | 76.3% | 100% | 81.5% | 86.4%
7 | C[C@@H](N)c1ccc(C(=O)Nc2ccnc3[nH]ccc23)cc1 + OCCn1cc(-c2cnc3nnn(Cc4ccc5ncccc5c4)c3n2)cn1 [PF04217903] (partner dose 1 µM) | 102% | 61.7% | 73% | 111% | 84.8% | 84.4%
8 | CCCCCCCCCCCCCCCCCCOP(=O)([O-])OC1CC[N+](C)(C)CC1 [Perifosine] + O=C1NC(=O)/C(=C/c2ccc(-c3ccc(F)cc3O)o2)S1 [AS252424] (partner dose 1 µM) | 90.3% | 93.4% | 83.8% | 82.1% | 87.8% | 118%
9 | CCCCCCCCCCCCCCCCCCOP(=O)([O-])OC1CC[N+](C)(C)CC1 [Perifosine] + Cn1cncc1[C@@](N)(c1ccc(Cl)cc1)c1ccc2c(c1)c(-c1cccc(Cl)c1)cc(=O)n2C [tipifarnib] (partner dose 0.01 µM) | 74% | 66% | 4.44% | 72.4% | 78.5% | 69%
10 | Cn1sc(=O)n(Cc2ccccc2)c1=O + O=C(O)c1ccc(-c2c[nH]c3ncc(-c4ccccc4)cc23)cc1C1CCCC1 [GSK650394] (partner dose 0.16 µM) | 98.6% | 94.5% | 88.4% | 74.8% | 91.5% | 75.5%
11 | C[C@@H](N)c1ccc(C(=O)Nc2ccnc3[nH]ccc23)cc1 + Cn1c(=O)n(-c2ccc(C(C)(C)C#N)cc2)c2c3cc(-c4cnc5ccccc5c4)ccc3ncc21 [NVP-BEZ235] (partner dose 0.004 µM) | 93.3% | 64.3% | 77.5% | 90.7% | 73.3% | 90.8%
12 | Cn1sc(=O)n(Cc2ccccc2)c1=O + CCCS(=O)(=O)Nc1ccc(F)c(C(=O)c2c[nH]c3ncc(Cl)cc23)c1F [PLX4720] (partner dose 0.08 µM) | 111% | 97.3% | 112% | 101% | 83.5% | 101%
13 | C[C@@H](N)c1ccc(C(=O)Nc2ccnc3[nH]ccc23)cc1 + Nc1cccc2c1CN(C1CCC(=O)NC1=O)C2=O [lenalidomide] (partner dose 1 µM) | 113% | 53.7% | 92.5% | 111% | 98.5% | 90.5%
14 | C[C@@H](N)c1ccc(C(=O)Nc2ccnc3[nH]ccc23)cc1 + N#Cc1c(O)c2c(-c3ccc(-c4ccccc4O)cc3)csc2[nH]c1=O [A769662] (partner dose 2 µM) | 103% | 79.1% | 84.4% | 97.2% | 94.5% | 86.6%
15 | CCCCCCCCCCCCCCCCCCOP(=O)([O-])OC1CC[N+](C)(C)CC1 [Perifosine] + COc1cc2ncnc(Nc3ccc(Oc4ccccc4)cc3)c2cc1OC [SrcI1] (partner dose 2 µM) | 83.1% | 107% | 100% | 78.2% | 131% | 89%
16 | C[C@@H](N)c1ccc(C(=O)Nc2ccnc3[nH]ccc23)cc1 + Cn1nnc2c(C(N)=O)ncn2c1=O [temozolomide] (partner dose 2 µM) | 112% | 61.6% | 72.7% | 119% | 87% | 98.8%

Row | Compound | cell count (WM115) | cell count (WM1716) | cell count (WM1745) | cell count (WM3526) | cell count (WM3619) | cell count (WM451Lu)
17 | CCCCCCCCCCCCCCCCCCOP(=O)([O-])OC1CC[N+](C)(C)CC1 [Perifosine] + CO[C@H]1C[C@@H]2CC[C@@H](C)[C@@](O)(O2)C(=O)C(=O)N2CCCC[C@H]2C(=O)O[C@H]([C@H](C)C[C@@H]2CC[C@@H](OCCO)[C@H](OC)C2)CC(=O)[C@H](C)/C=C(\C)[C@@H](O)[C@@H](OC)C(=O)[C@H](C)C[C@H](C)/C=C/C=C/C=C/1C [everolimus] (partner dose 0.02 µM) | 78% | 79.2% | 85.4% | 72.2% | 79.8% | 96%
18 | Cn1sc(=O)n(Cc2ccccc2)c1=O + C=CCn1c(=O)c2cnc(Nc3ccc(N4CCN(C)CC4)cc3)nc2n1-c1cccc(C(C)(C)O)n1 [MK1775] (partner dose 0.02 µM) | 89.4% | 102% | 79.9% | 95.6% | 69.8% | 102%
19 | CCCCCCCCCCCCCCCCCCOP(=O)([O-])OC1CC[N+](C)(C)CC1 [Perifosine] + CC(C)C[C@H](NC(=O)[C@H](Cc1ccccc1)NC(=O)c1cnccn1)B(O)O [Bortezomib] (partner dose 0.001 µM) | 105% | 73.3% | 79.6% | 72.7% | 73.6% | 99.1%
20 | CCCCCCCCCCCCCCCCCCOP(=O)([O-])OC1CC[N+](C)(C)CC1 [Perifosine] + NC1(c2ccc(-c3nc4ccn5c(=O)[nH]nc5c4cc3-c3ccccc3)cc2)CCC1 [MK2206] (partner dose 0.4 µM) | 69.3% | 85.9% | 74.8% | 91.4% | 91.1% | 86.3%
21 | Cn1sc(=O)n(Cc2ccccc2)c1=O + O=c1cc(-c2cccc3c2Sc2ccccc2S3)oc(N2CCOCC2)c1 [KU55933] (partner dose 1 µM) | 97.4% | 99% | 88.4% | 89% | 118% | 96.6%
22 | C[C@@H](N)c1ccc(C(=O)Nc2ccnc3[nH]ccc23)cc1 + Cn1cncc1[C@@](N)(c1ccc(Cl)cc1)c1ccc2c(c1)c(-c1cccc(Cl)c1)cc(=O)n2C [tipifarnib] (partner dose 0.01 µM) | 97.7% | 70.7% | 77.1% | 102% | 91.2% | 87.1%
23 | Cn1sc(=O)n(Cc2ccccc2)c1=O + COc1ccc2c(c1)CCC1C2CCC2(C)C(NCCCCCCN3C(=O)C=CC3=O)CCC12 [U73122] (partner dose 0.4 µM) | 107% | 76% | 89.3% | 70% | 86.2% | 69.4%
24 | CCCCCCCCCCCCCCCCCCOP(=O)([O-])OC1CC[N+](C)(C)CC1 [Perifosine] + C[C@]1(c2nc3c(C(N)=O)cccc3[nH]2)CCCN1 [Veliparib] (partner dose 1.4 µM) | 96.7% | 76.4% | 81.4% | 85.5% | 67.1% | 107%
25 | Cn1sc(=O)n(Cc2ccccc2)c1=O + O=C(O)C(=O)Nc1sc2c(c1C(=O)O)CCNC2 [TCS401] (partner dose 1.66667 µM) | 107% | 115% | 95.4% | 104% | 96.8% | 121%
26 | Cn1sc(=O)n(Cc2ccccc2)c1=O + OCCn1cc(-c2cnc3nnn(Cc4ccc5ncccc5c4)c3n2)cn1 [PF04217903] (partner dose 1 µM) | 103% | 121% | 105% | 119% | 117% | 84.4%
27 | C[C@@H](N)c1ccc(C(=O)Nc2ccnc3[nH]ccc23)cc1 + NC(=O)Nc1cc(-c2cccc(F)c2)sc1C(=O)N[C@H]1CCCNC1 [AZD7762] (partner dose 0.02 µM) | 109% | 62.4% | 74.3% | 106% | 38.6% | 96.8%
28 | CCCCCCCCCCCCCCCCCCOP(=O)([O-])OC1CC[N+](C)(C)CC1 [Perifosine] + NC(=O)c1ccc(N(C(N)=O)c2c(F)cccc2F)nc1-c1ccc(F)cc1F [VX702] (partner dose 0.4 µM) | 97.1% | 97.3% | 77.9% | 97.1% | 88.6% | 102%
29 | Cn1sc(=O)n(Cc2ccccc2)c1=O + COc1cc2ncnc(Nc3ccc(Oc4ccccc4)cc3)c2cc1OC [SrcI1] (partner dose 2 µM) | 103% | 135% | 94.2% | 95.7% | 94.7% | 104%
30 | Cn1sc(=O)n(Cc2ccccc2)c1=O + C[C@]1(c2nc3c(C(N)=O)cccc3[nH]2)CCCN1 [Veliparib] (partner dose 1.4 µM) | 112% | 96.2% | 85.9% | 97.2% | 133% | 111%
31 | C[C@@H](N)c1ccc(C(=O)Nc2ccnc3[nH]ccc23)cc1 + CCc1ccc(CCOc2ccc(CC3SC(=O)NC3=O)cc2)nc1 [pioglitazone] (partner dose 2 µM) | 103% | 77.1% | 80.3% | 110% | 77.6% | 87%
